Publication PMC4336329 (PLoS ONE, 2015)
Out of some 310,000 compounds screened, about 14,000 (4.5%) showed an effect of 50% or more. The effect is printed as a negative number. Some of the results follow.

The compounds below were run against human ether-à-go-go-related gene (hERG) potassium channel (human, UniProt Q12809) (assay: primary screen, population patch clamp on CHO cells stably expressing hERG).
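Note: peak tail current of the secondary pulse compared with the same well before compound.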

Sequence of human ether-à-go-go-related gene (hERG) potassium channel (Q12809 whole entry, looked up): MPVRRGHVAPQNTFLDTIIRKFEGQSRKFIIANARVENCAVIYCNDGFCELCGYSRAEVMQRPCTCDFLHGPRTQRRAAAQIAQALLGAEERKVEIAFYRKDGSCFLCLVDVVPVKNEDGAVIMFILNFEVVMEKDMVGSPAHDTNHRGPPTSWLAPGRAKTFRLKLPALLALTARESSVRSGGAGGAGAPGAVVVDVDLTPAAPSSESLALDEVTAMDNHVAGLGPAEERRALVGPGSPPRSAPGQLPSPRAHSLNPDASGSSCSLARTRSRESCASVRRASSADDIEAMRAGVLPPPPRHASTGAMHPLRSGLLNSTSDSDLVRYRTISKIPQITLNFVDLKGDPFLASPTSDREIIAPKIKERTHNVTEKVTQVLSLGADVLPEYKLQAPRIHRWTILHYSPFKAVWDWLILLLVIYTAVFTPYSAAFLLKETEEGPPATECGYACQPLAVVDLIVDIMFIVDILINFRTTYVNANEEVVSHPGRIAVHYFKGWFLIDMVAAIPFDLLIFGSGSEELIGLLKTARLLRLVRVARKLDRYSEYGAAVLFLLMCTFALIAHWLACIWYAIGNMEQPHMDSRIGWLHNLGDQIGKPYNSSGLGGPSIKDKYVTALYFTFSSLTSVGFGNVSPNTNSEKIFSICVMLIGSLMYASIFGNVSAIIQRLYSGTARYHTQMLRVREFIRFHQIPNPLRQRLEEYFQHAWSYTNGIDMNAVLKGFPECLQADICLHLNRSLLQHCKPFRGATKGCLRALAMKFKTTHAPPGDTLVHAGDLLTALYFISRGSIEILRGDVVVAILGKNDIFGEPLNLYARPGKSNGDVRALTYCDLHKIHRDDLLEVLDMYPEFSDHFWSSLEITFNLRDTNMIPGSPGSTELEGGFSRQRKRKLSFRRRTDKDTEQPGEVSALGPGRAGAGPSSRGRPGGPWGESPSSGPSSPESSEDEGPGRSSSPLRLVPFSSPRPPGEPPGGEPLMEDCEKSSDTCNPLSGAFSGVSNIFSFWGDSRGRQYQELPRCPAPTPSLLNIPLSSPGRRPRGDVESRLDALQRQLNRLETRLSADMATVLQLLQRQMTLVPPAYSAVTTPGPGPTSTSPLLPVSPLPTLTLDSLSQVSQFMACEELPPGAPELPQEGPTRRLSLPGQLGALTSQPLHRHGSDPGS

Row | SMILES | hERG current change (%, negative = inhibition) at 10uM [%]
1 | COc1ccc(C2C(C(=O)NCC3CCCO3)c3cc(OC)c(OC)cc3C(=O)N2C)cc1OC (stereo not shown) | 2.52
2 | O=C(Oc1ccc(/C=N/NC(=O)c2ccccc2F)cc1)c1ccccc1 | 10.3
3 | COc1cc(C(=S)N2CCCC2)cc(Cl)c1O | 6.77
4 | O=C(CN1C(=O)NC2(CCCc3ccccc32)C1=O)NC1CCCCC1 (stereo not shown) | 4.92
5 | CC(NC(=O)c1cccs1)c1ccc(Br)cc1 (stereo not shown) | 3.75
6 | C/C(=N/NC(=O)CNC(=O)C1COc2ccccc2O1)c1ccc([N+](=O)[O-])cc1 (stereo not shown) | -64.7
7 | O=C(Nc1ccc(Cl)cc1F)c1ccc(-n2cncn2)cc1 | -4.64
8 | CC1C/C(=N/NC(=O)c2cccc(F)c2)c2ccc(O)cc2C1 (stereo not shown) | -14.1
9 | Cc1cc2oc(C(=O)Nc3ccc(S(=O)(=O)Nc4nccs4)cc3)cc(=O)c2cc1Cl | -14.5
10 | CCc1nc2ccccc2n1Cc1ccccc1F | 11
11 | CCS(=O)(=O)Nc1cccc(-c2ccc3nnc(-c4cccnc4)n3n2)c1 | -4.03
12 | Cc1sc(N(C(=O)CCc2ccccc2)c2ccc(C(=O)O)cc2)nc1-c1ccccc1 | 17.3
13 | O=C(CN1C(=O)CCS(=O)(=O)c2ccccc21)Nc1ccc(Cl)cc1 | -1.64
14 | Cc1ccc(OC(C)C(=O)Nc2ccc(F)cc2)c([N+](=O)[O-])n1 (stereo not shown) | -19.8
15 | COC(=O)[C@@H]1[C@@H](C(=O)OC)C2(c3ccccc3-c3ccccc32)N(c2ccc(Cl)cc2)N1C#N | -5.5
16 | Cc1c(NC(=O)C(C)N2C(=O)C3C4C=CC(C4)C3C2=O)c(=O)n(-c2ccccc2)n1C (stereo not shown) | 14.7
17 | COc1cc(C=O)ccc1OCCOCCOc1ccc(Cl)cc1Cl | -11.1
18 | CCOC(=O)Cc1csc(NC(NC(=O)OCC)(C(F)(F)F)C(F)(F)F)n1 | 2.83
19 | COc1ccccc1CC1C(=O)C2CCN1CC2 (stereo not shown) | 14.5
20 | Cc1c(Cl)cccc1NC(=O)C1NC(=O)CC1c1ccccc1 (stereo not shown) | 8.73
21 | COC(=O)C1CCN(C(=O)c2cc3ccccc3oc2=O)CC1 | -7.44
22 | Cc1ccsc1C(=O)NC(C)c1ccccc1 (stereo not shown) | 17.6

Row | SMILES | hERG current change (%, negative = inhibition) at 10uM [%]
23 | O=C(CCSCc1cccc(F)c1)NCCc1ccccc1 | 2.11
24 | O=C(CSc1nnc(CNC(=O)c2ccco2)o1)Nc1cccc(F)c1 | 6.05
25 | CC(=O)c1cccc(NC(=O)CCn2c(=S)oc3ccccc32)c1 | 9.8
26 | Cc1cc(F)c(F)c(C(=O)N2CCOCC2)c1Cl | 28.8
27 | COCCCNC(=O)c1ccc(CSCc2ccc(C)cc2)o1 | -12.5
28 | CS(=O)(=O)N(CC(=O)NCCSCc1ccco1)c1ccc2c(c1)OCO2 | 2.88
29 | COC(=O)c1sccc1NC(=O)CSc1ccc(Cl)cc1 | 4.19
30 | Cc1cccc(C(=O)N2CCN(Cc3ccc4c(c3)OCO4)CC2)c1 | -14.1
31 | COc1ccc(NS(=O)(=O)c2cccc(C(=O)NCC(c3ccc(OC)cc3)N3CCOCC3)c2)cc1 (stereo not shown) | -26.1
32 | Cc1ccc(CNC(=O)C(=O)NCC2CCCN2S(=O)(=O)c2cc(C)ccc2C)cc1 (stereo not shown) | -18.4
33 | O=C(CSc1nncc2ccccc12)Nc1cccc(C(=O)O)c1 | 15.5
34 | Cc1cc(C(=O)Nc2c(F)cc(F)cc2Br)n(-c2ccccc2)n1 | 16
35 | O=S1(=O)[C@H]2C[C@@H]3C=C[C@@]2(CN1Cc1cccc(Cl)c1)O3 | -2.05
36 | COc1ccc(S(=O)(=O)N2CCCCCC2)cc1C(=O)N(C)Cc1ccc(F)cc1 | -38.1
37 | COC(=O)CN1C(=O)[C@H]2[C@@H](c3ccc(C)o3)N3C(=O)CN(Cc4ccccn4)C(=O)[C@@]3(C)[C@H]2C1=O | 0.901
38 | Cc1ccc(CNC(=O)CN(C(=O)C2(C)CC(=O)N=C3C=CC=CN32)c2ccccc2F)cc1 (stereo not shown) | 14.5
39 | CCc1ccc(OCC(=O)OCC(=O)c2ccc3c(c2)NC(=O)CO3)cc1 | 12
40 | Cc1nn2c(NCCCn3ccnc3)cc(C(C)C)nc2c1-c1ccccc1 | -23.5
41 | Cn1c(SCC(=O)c2cccs2)nnc1-c1ccco1 | 11.8
42 | CNc1c(NC(=O)C2CCC(C)CC2)c(=O)oc2ccccc12 (stereo not shown) | 0.302
43 | CCc1ccc(-c2cc(C)no2)cc1S(=O)(=O)Nc1ccccn1 | 23
44 | N#C/C(=N/Nc1ccccc1[N+](=O)[O-])C(N)=S | 9.51

Row | SMILES | hERG current change (%, negative = inhibition) at 10uM [%]
45 | Cc1cccc(C)c1NC(=O)Nc1ccccc1-n1ccnc1 | -5.16
46 | O=S(=O)(/N=C(/Nc1ccccc1)c1ccccc1)c1cccs1 | 12.1
47 | Cc1ccc(-c2nn3c(C)nnc3s2)cc1NC(=O)c1ccc(-c2ccc(Cl)cc2Cl)o1 | -11
48 | CCOc1ccccc1NC(=O)c1ccc2ccccc2c1 | -1.85
49 | CNC(=S)N1CC2CC(C1)c1cccc(=O)n1C2 (stereo not shown) | 20.6
50 | O=C(Nc1ccc(S(=O)(=O)NCc2ccco2)cc1)c1cccc(F)c1 | -5.94
51 | O=C(CN1C(=O)c2ccccc2C1=O)Nc1ccccc1C(=O)N1CCCC1 | 2.46
52 | CCOc1cccc2sc(N(CCCN(C)C)C(=O)Cc3ccccc3)nc12.Cl | -80.2
53 | COCCn1c(=O)[nH]c2cc(C(=O)N3CCN(c4cccc(Cl)c4)CC3)ccc2c1=O | -6.04
54 | COc1ccc(CNC(=O)[C@H](C)NC(=O)C2CCN(S(=O)(=O)c3ccc(F)cc3)CC2)cc1 | 14.8
55 | CCCC1S/C(=N/N=C/c2ccc(OC)cc2)N(Cc2ccccc2)C1=O (stereo not shown) | 3.46
56 | CCN(CC)CCC(c1cc(OC)c(OC)c(OC)c1)c1c(OC)cc(OC)c2ccc(=O)oc12 (stereo not shown) | -41.2
57 | CCCc1c(C(=O)N/N=C/c2cccnc2)nnn1-c1nonc1N | 12.6
58 | CCOc1ccc(C2CC(c3ccc(CC)cc3)n3nc(N)nc3N2)cc1 (stereo not shown) | 1.14
59 | Cc1cn(-c2cc(C(=O)Nc3ccc(C)c(NC(=O)C(=O)c4c[nH]c5ccccc45)c3)cc(C(F)(F)F)c2)cn1 | 1.92
60 | COc1ccc(C2=NN(C(=O)c3ccccc3)C(c3cccc([N+](=O)[O-])c3)C2)cc1 (stereo not shown) | -13
61 | O=C(NCCn1cccc1)c1cccc2ccccc12 | -0.492
62 | COc1ccc(C(CNC(=O)COc2ccc(Cl)c(C)c2)N2CCCCC2)cc1 (stereo not shown) | -44.6
63 | CN(CCC(=O)Nc1ccc2c(c1)OCO2)Cc1ccccc1.Cl | 7.32
64 | COc1ccc(-c2cn3c(C)c(C(=O)N4CCCc5ccccc54)sc3n2)cc1 | -16
65 | COC(=O)C1(C)NC(c2cccs2)C2C(=O)N(c3ccccc3F)C(=O)C21 (stereo not shown) | 0.956
66 | CCn1c(C)c(Br)c(=O)c(C(=O)OC)c1-c1ccc(Cl)cc1 | 19.2

Row | SMILES | hERG current change (%, negative = inhibition) at 10uM [%]
67 | O=C(NCc1ccc2c(c1)OCO2)C1CCCN1C(=O)Nc1cccc(Cl)c1 (stereo not shown) | -25.4
68 | O=C(Cc1cccc(C(F)(F)F)c1)Nc1ccc(S(=O)(=O)N2CCCC2)cc1 | -5.79
69 | COc1ccc(CNC(=O)C2CCN(S(=O)(=O)N3CCCC3)CC2)c(OC)c1 | 4.62
70 | O=C(Nc1ccc(S(=O)(=O)N2CCc3ccccc32)cc1)c1ccco1 | 0.483
71 | CC1CCCC(NC(=O)CSC2=Nc3ccccc3C3CC=NN23)C1C (stereo not shown) | -26.5
72 | COc1ccccc1C1CCCN1Cc1nc(-c2ccc(C)s2)oc1C (stereo not shown) | -40.4
73 | Cc1occc(=O)c1OCc1c(F)cccc1Cl | 10.6
74 | CC(C)Oc1ccccc1/C=N/NC(=O)C1CC1 | 7.57
75 | COc1ccc(CCNC(=O)CSc2ccccn2)cc1OC | 17.5
76 | CC(C)CCC(=O)N1CCC(N2CCC(C(=O)NCc3ccccn3)CC2)CC1 | 16.1
77 | Cc1cc(C)n(-c2nc3ccccc3nc2NCCc2ccccc2)n1 | 5.83
78 | COc1ccc2oc(C(=O)Nc3ccc(N4CCOCC4)cc3)c(C)c2c1 | -8.09
79 | COc1ccccc1C(OC(=O)c1cccs1)C(=O)NCc1ccco1 (stereo not shown) | 10.6
80 | COCCn1c(Sc2ccccc2)nc2c1c(=O)[nH]c(=O)n2C | -1.42
81 | CCCN(C(=O)Cn1c(C(F)(F)F)nc2ccccc21)C1CCS(=O)(=O)C1 (stereo not shown) | 11.9
82 | COc1ccc(CN(C)CC(=O)N(C)CC(=O)Nc2ccccc2Br)cc1F | -39.1
83 | Cc1cccn2c(=O)c3cc(C#N)c(=NC(=O)c4ccco4)n(Cc4ccco4)c3nc12 | -55.4
84 | CCS(=O)(=O)c1ccc2oc(Nc3cc(C)cc(C)c3)nc2c1 | -5.33
85 | COC(=O)[C@]1(C)CCC[C@@]2(C)C3CC[C@]4(OC(C)=O)C[C@@]3(CCC21)CC4=O (stereo partly shown) | -4.32
